Values marked as one replicate rest on one cluster of the flow cell; about a third of the high ones do not repeat.
Each sequence was assayed on ATP (assay: switch fluorescence ratio, 500 uM ATP over buffer (Cy3 cluster intensity, sum of 5 cycles each) (fold (ratio)); higher = stronger signal-on switching upon ATP binding; sequences stand for … in TCGTCGGCAGCGTCAGATGTGTATAAGAGACAGTTTTTTTTTTTTTTTTTTTTTTTTT…TC). Settings: aptamer strand: ATP DNA aptamer (quencher-CACCTGGGGGAGTATTGCGGAGGAAGG + anchor), 100 nM annealed; ATP concentration: 500 uM; one replicate.
Outline: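 Exposure to 500 uM ATP lasted 15 min at 22 °C before imaging, and a selection-buffer image was taken beforehand, for Cy3-labelled switching-strand clusters on a modified Illumina MiSeq flow-cell annealed to 100 nM quencher-labelled ATP aptamer. Five buffer/ATP cycles were run with NaOH stripping and re-annealing between them. The fluorescence ratio per cluster is summed target-cycle over summed buffer-cycle Cy3 intensity, averaged per switch-domain sequence. Clusters outside 100-1000 RFU were excluded.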
AAAAAGGAGC gave a switch fluorescence ratio of 1.02.
Sequence AAAAATGGCC has a switch fluorescence ratio of 1.01.
For AAAACATCGG, the switch fluorescence ratio was 0.992.
AAAACATTTA was tested, and the switch fluorescence ratio was 1.03.
AAAACCGACT was tested, and the switch fluorescence ratio was 1.05.
AAAACCTCTT gave a switch fluorescence ratio of 1.01.
For AAAACGCCGT, the switch fluorescence ratio was 1.01.
AAAACGGACC gave a switch fluorescence ratio of 1.13.
AAAACGTTGG showed a switch fluorescence ratio of 1.03.
AAAACTGGAT gave a switch fluorescence ratio of 0.953.
Sequence AAAAGAAAGA has a switch fluorescence ratio of 0.999.
AAAAGCAACT gave a switch fluorescence ratio of 1.04.
In the case of AAAAGCACCT, the switch fluorescence ratio is reported as 1.41.
For AAAAGGCTTG, the switch fluorescence ratio was 1.02.
AAAAGGTTCG gave a switch fluorescence ratio of 1.02.
AAAAGTAATG showed a switch fluorescence ratio of 1.02.
For AAAAGTACAT, the switch fluorescence ratio was 1.19.
For AAAAGTAGAG, the switch fluorescence ratio was 0.999.
For AAAAGTCCTG, the switch fluorescence ratio was 0.976.
For AAAAGTTACT, the switch fluorescence ratio was 0.995.
For AAAATAATTT, the switch fluorescence ratio was 1.05.
Sequence AAAATAGACC has a switch fluorescence ratio of 1.13.
Sequence AAAATAGCCC has a switch fluorescence ratio of 1.03.
AAAATATG was tested, and the switch fluorescence ratio was 1.01.
With AAAATCAAGG the switch fluorescence ratio was 1.01.
With AAAATCTGAT the switch fluorescence ratio was 0.993.
For AAAATGAACC, the switch fluorescence ratio was 1.01.
AAAATGCGAC showed a switch fluorescence ratio of 1.09.
AAAATGCTGC was tested, and the switch fluorescence ratio was 0.939.
AAAATGTACG was tested, and the switch fluorescence ratio was 0.941.
Sequence AAAATGTGC has a switch fluorescence ratio of 0.967.
Work on AAAATTCTGT yielded a switch fluorescence ratio of 0.996.
Sequence AAAATTTCGT has a switch fluorescence ratio of 0.968.
AAACAGCCAC showed a switch fluorescence ratio of 1.17.
AAACATAGGC gave a switch fluorescence ratio of 1.05.
For AAACATATAC, the switch fluorescence ratio was 1.39.
AAACCATCTT gave a switch fluorescence ratio of 1.03.
With AAACCATTAC the switch fluorescence ratio was 1.57.
Sequence AAACCCCAAC has a switch fluorescence ratio of 1.1.
With AAACCCTCGG the switch fluorescence ratio was 1.02.
For AAACCGCAAG, the switch fluorescence ratio was 4.14.
Work on AAACCGGTCA yielded a switch fluorescence ratio of 1.01.
With AAACCGTGTT the switch fluorescence ratio was 1.
AAACCGTTCC showed a switch fluorescence ratio of 2.75.
AAACGAAGAG was tested, and the switch fluorescence ratio was 1.01.
Sequence AAACGAGGG has a switch fluorescence ratio of 0.981.
Sequence AAACGGACAC has a switch fluorescence ratio of 1.23.
Sequence AAACGGCCGC has a switch fluorescence ratio of 1.06.
In the case of AAACGGGCCT, the switch fluorescence ratio is reported as 1.07.
For AAACGGGCTG, the switch fluorescence ratio was 0.961.
AAACGGTAGG showed a switch fluorescence ratio of 1.02.
AAACGTAAAC gave a switch fluorescence ratio of 1.26.
AAACGTGCTT showed a switch fluorescence ratio of 1.03.
With AAACGTGTTT the switch fluorescence ratio was 1.01.
Sequence AAACGTTCCT has a switch fluorescence ratio of 3.78.
AAACGTTTGA gave a switch fluorescence ratio of 1.02.
For AAACGTTTT, the switch fluorescence ratio was 0.982.
AAACTAGTGG was tested, and the switch fluorescence ratio was 0.964.
AAACTTATTT showed a switch fluorescence ratio of 1.04.
With AAAGAACGT the switch fluorescence ratio was 1.
Sequence AAAGAATAGC has a switch fluorescence ratio of 1.01.
AAAGACGCAC gave a switch fluorescence ratio of 1.66.
AAAGAGACCC gave a switch fluorescence ratio of 0.943.
AAAGAGCCAT was tested, and the switch fluorescence ratio was 1.03.
Sequence AAAGAGTCGG has a switch fluorescence ratio of 1.02.
AAAGAGTGGA was tested, and the switch fluorescence ratio was 0.993.
For AAAGATTGAA, the switch fluorescence ratio was 0.967.
AAAGCACCTG was tested, and the switch fluorescence ratio was 1.1.
In the case of AAAGCCGGCA, the switch fluorescence ratio is reported as 1.01.
In the case of AAAGCGCGAG, the switch fluorescence ratio is reported as 0.994.
In the case of AAAGCTAAAT, the switch fluorescence ratio is reported as 1.01.
AAAGCTAACA was tested, and the switch fluorescence ratio was 0.982.
AAAGCTAAGC showed a switch fluorescence ratio of 1.02.
Work on AAAGCTTTAC yielded a switch fluorescence ratio of 1.35.
With AAAGCTTTCC the switch fluorescence ratio was 1.72.
AAAGGACAAG was tested, and the switch fluorescence ratio was 0.995.
With AAAGGACCCG the switch fluorescence ratio was 1.13.
Work on AAAGGATTAA yielded a switch fluorescence ratio of 1.
AAAGGCATG gave a switch fluorescence ratio of 1.05.
In the case of AAAGGCCGGT, the switch fluorescence ratio is reported as 0.992.
Work on AAAGGGATGC yielded a switch fluorescence ratio of 1.07.
Sequence AAAGGTAAGT has a switch fluorescence ratio of 1.02.
Work on AAAGGTCGCG yielded a switch fluorescence ratio of 0.991.
Sequence AAAGGTCGTG has a switch fluorescence ratio of 1.01.
Sequence AAAGGTGCCG has a switch fluorescence ratio of 0.991.
In the case of AAAGGTGCTC, the switch fluorescence ratio is reported as 1.07.
With AAAGGTTCTC the switch fluorescence ratio was 0.962.
In the case of AAAGGTTGAA, the switch fluorescence ratio is reported as 0.979.
Sequence AAAGTAAAA has a switch fluorescence ratio of 0.905.
In the case of AAAGTAACCC, the switch fluorescence ratio is reported as 0.967.
AAAGTACAAT gave a switch fluorescence ratio of 1.17.
With AAAGTAGCGT the switch fluorescence ratio was 1.04.
For AAAGTATGCA, the switch fluorescence ratio was 0.991.
For AAAGTCACGT, the switch fluorescence ratio was 1.04.
For AAAGTCTTAA, the switch fluorescence ratio was 1.01.
In the case of AAAGTGAGTC, the switch fluorescence ratio is reported as 0.996.
Sequence AAAGTGCGCT has a switch fluorescence ratio of 1.02.
Work on AAAGTGGAAT yielded a switch fluorescence ratio of 0.985.
For AAAGTGTCG, the switch fluorescence ratio was 0.987.
For AAAGTTCTAA, the switch fluorescence ratio was 0.974.
In the case of AAAGTTGGAA, the switch fluorescence ratio is reported as 1.01.
With AAAGTTTACC the switch fluorescence ratio was 1.05.
AAAGTTTATC was tested, and the switch fluorescence ratio was 0.977.
AAATAAACTC was tested, and the switch fluorescence ratio was 1.
AAATAAAGAG showed a switch fluorescence ratio of 1.
Work on AAATAACGCC yielded a switch fluorescence ratio of 1.03.
With AAATAACGTA the switch fluorescence ratio was 1.09.
AAATAACTCT was tested, and the switch fluorescence ratio was 1.
In the case of AAATACAGTA, the switch fluorescence ratio is reported as 1.08.
With AAATACCCGT the switch fluorescence ratio was 1.13.
Sequence AAATAGGCGC has a switch fluorescence ratio of 1.07.
AAATAGGGC was tested, and the switch fluorescence ratio was 1.01.
AAATAGTATC showed a switch fluorescence ratio of 0.977.
Work on AAATAGTGTT yielded a switch fluorescence ratio of 1.05.
For AAATCATTTT, the switch fluorescence ratio was 1.
AAATCCACC gave a switch fluorescence ratio of 1.03.
Work on AAATCCGCTC yielded a switch fluorescence ratio of 2.11.
AAATCGGTTT gave a switch fluorescence ratio of 0.998.
AAATCTGATG was tested, and the switch fluorescence ratio was 0.994.
AAATCTGTAT was tested, and the switch fluorescence ratio was 1.01.
Sequence AAATCTTTC has a switch fluorescence ratio of 1.34.
AAATCTTTGT showed a switch fluorescence ratio of 1.02.
AAATCTTTTA gave a switch fluorescence ratio of 0.98.
In the case of AAATGAAGTA, the switch fluorescence ratio is reported as 0.974.
For AAATGAGTCA, the switch fluorescence ratio was 1.03.
AAATGCATGA showed a switch fluorescence ratio of 0.974.
With AAATGCCGCT the switch fluorescence ratio was 1.08.
AAATGGACCG showed a switch fluorescence ratio of 1.01.
AAATGGCGGC gave a switch fluorescence ratio of 0.935.
Work on AAATGGGCCG yielded a switch fluorescence ratio of 0.995.
Work on AAATGTACCT yielded a switch fluorescence ratio of 1.47.
For AAATGTCATG, the switch fluorescence ratio was 0.969.
AAATGTCTGG showed a switch fluorescence ratio of 0.953.
AAATGTTATG showed a switch fluorescence ratio of 1.01.
Sequence AAATGTTGCG has a switch fluorescence ratio of 1.
Work on AAATTAAAG yielded a switch fluorescence ratio of 0.984.
AAATTAGCCC was tested, and the switch fluorescence ratio was 1.
In the case of AAATTCCGAG, the switch fluorescence ratio is reported as 3.27.
In the case of AAATTCTCAT, the switch fluorescence ratio is reported as 1.02.
Work on AAATTGACTA yielded a switch fluorescence ratio of 1.01.
AAATTGTGCT gave a switch fluorescence ratio of 0.99.
For AAATTTAATA, the switch fluorescence ratio was 0.988.
Sequence AAATTTGTT has a switch fluorescence ratio of 0.976.
For AACAAAGGGC, the switch fluorescence ratio was 0.969.
AACAAATTGA gave a switch fluorescence ratio of 1.03.
AACAACGGCG showed a switch fluorescence ratio of 0.991.
AACAACGTCG gave a switch fluorescence ratio of 0.987.
Work on AACAAGTCCA yielded a switch fluorescence ratio of 1.01.
AACAATATCC was tested, and the switch fluorescence ratio was 1.03.
Work on AACAATGATG yielded a switch fluorescence ratio of 0.972.
Sequence AACACAGATG has a switch fluorescence ratio of 1.01.
Work on AACACGGAGG yielded a switch fluorescence ratio of 1.
Sequence AACACTTATT has a switch fluorescence ratio of 1.01.
AACAGACGCT was tested, and the switch fluorescence ratio was 1.15.
With AACAGATACC the switch fluorescence ratio was 1.06.
Sequence AACAGCACTC has a switch fluorescence ratio of 1.37.
In the case of AACAGCGGGG, the switch fluorescence ratio is reported as 1.01.
AACAGGTTCG was tested, and the switch fluorescence ratio was 1.08.
AACATAGAA was tested, and the switch fluorescence ratio was 1.01.
In the case of AACATCCGAC, the switch fluorescence ratio is reported as 1.77.
In the case of AACATTCCTG, the switch fluorescence ratio is reported as 1.25.
AACATTGTTA showed a switch fluorescence ratio of 0.993.
AACCAACCTA showed a switch fluorescence ratio of 1.1.
In the case of AACCATCCTT, the switch fluorescence ratio is reported as 1.12.
In the case of AACCATCTGG, the switch fluorescence ratio is reported as 0.984.
Work on AACCCAGGG yielded a switch fluorescence ratio of 1.24.
With AACCCCATCT the switch fluorescence ratio was 1.05.
AACCCGAAGG showed a switch fluorescence ratio of 0.995.
AACCCGAGG showed a switch fluorescence ratio of 1.03.
Work on AACCCTTCGA yielded a switch fluorescence ratio of 1.15.
AACCGACCGA was tested, and the switch fluorescence ratio was 0.934.
AACCGCTCCC showed a switch fluorescence ratio of 1.52.
AACCGCTGCG gave a switch fluorescence ratio of 1.22.
Sequence AACCTAGAGG has a switch fluorescence ratio of 0.986.
Sequence AACCTGTCCG has a switch fluorescence ratio of 1.33.
Work on AACCTGTTG yielded a switch fluorescence ratio of 1.06.
AACCTTATAC was tested, and the switch fluorescence ratio was 1.54.
AACGAACCAA showed a switch fluorescence ratio of 1.28.
AACGAAGCCC was tested, and the switch fluorescence ratio was 1.16.
Sequence AACGATCGTG has a switch fluorescence ratio of 0.972.
AACGATGCTA gave a switch fluorescence ratio of 1.06.
Sequence AACGCAGTGA has a switch fluorescence ratio of 0.995.
Work on AACGCAGTTT yielded a switch fluorescence ratio of 1.19.
With AACGCCGTCA the switch fluorescence ratio was 0.989.
AACGCCGTTG showed a switch fluorescence ratio of 1.02.
In the case of AACGCCTCAA, the switch fluorescence ratio is reported as 1.17.
Sequence AACGCGCGTT has a switch fluorescence ratio of 0.955.
Sequence AACGGAATCC has a switch fluorescence ratio of 1.45.
With AACGGCCTAC the switch fluorescence ratio was 1.17.
AACGGGCCTC was tested, and the switch fluorescence ratio was 1.06.
For AACGGGGCAG, the switch fluorescence ratio was 1.
In the case of AACGGGGGAA, the switch fluorescence ratio is reported as 0.96.
With AACGGGTGGC the switch fluorescence ratio was 1.16.
With AACGGTACT the switch fluorescence ratio was 1.54.
Sequence AACGGTGTGT has a switch fluorescence ratio of 0.998.
In the case of AACGTATGAC, the switch fluorescence ratio is reported as 0.972.
For AACGTCGCCC, the switch fluorescence ratio was 1.02.
For AACGTCGGGC, the switch fluorescence ratio was 0.979.
AACGTGAAGA gave a switch fluorescence ratio of 1.02.
AACGTGACTC was tested, and the switch fluorescence ratio was 1.42.
